This note sets out measurements from the supplement of paper PMC4967469.

By IC50 is meant the dose at which the fit gives 50% viability; where the fit passes the top or lowest dose, that dose stands as a limit. For AUC the same curve is integrated over the 256-fold range of doses and scaled to a fraction; values near 1 show little effect. For part of these data: An inferred top dose was calculated from the reported fits. For part of these data: Where an entry number is given, a second screen of the drug exists; the two often differ.

Experiment in all cases: Viability of human cancer cell lines after 72 h of drug (GDSC screen)
Compound in one assay: O=c1[nH]cc(F)c(=O)[nH]1 [5-Fluorouracil]
The conditions noted are these: top dose 32 µM; top dose inferred. As for the experimental part: (§1)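 Human cancer cell lines in 384-well plates, medium with 10% serum, drug for 72 h over a 256-fold dose range (nine 2-fold or five 4-fold steps up to the top dose). Adherent lines were fixed and stained with the nucleic acid dye Syto60, suspension lines read with resazurin; signal relative to control wells, capped at 0 and 100%. One two-parameter sigmoid per drug and line, fitted in a mixed model over all curves with the slope shared within a line.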

Compound in another assay: OC[C@H](Cc1ccccc1)Nc1nc(Oc2ccc3c(c2)CCC3)nc2c1ncn2Cc1ccc(-c2ccccc2)cc1 [QS11]
The conditions noted are these: top dose 10.24 µM. As for the experimental part:
as §1

Compound in another assay: CC(C)(C)c1cc(NC(=O)Nc2ccc(-c3cn4c(n3)sc3cc(OCCN5CCOCC5)ccc34)cc2)no1 [AC220]
The conditions noted are these: top dose 1.024 µM; top dose inferred. As to the method: as §1

Compound in the next assay: C#Cc1cccc(Nc2ncnc3cc(OC)c(OCCCCCCC(=O)NO)cc23)c1 [CUDC-101]
The conditions noted are these: top dose 5.12 µM; top dose inferred. As to the method:
as §1

Compound in a further assay: Fc1cc(-c2ccnc(Nc3ccc(-n4cnc(N5CCOCC5)n4)cc3)n2)cc(N2CCOCC2)c1 [JNK-9L]
The conditions noted are these: top dose 5.12 µM; top dose inferred. As to the method: as §1

Compound in a further assay: COc1cc(F)c(F)c(Nc2ccc(I)cc2F)c1NS(=O)(=O)C1(C[C@H](O)CO)CC1 [RDEA119]
The conditions noted are these: top dose 5 µM, top dose inferred. As to the method: as §1

Compound in the next assay: NCC(=O)Nc1ccc(-n2nc(C(F)(F)F)cc2-c2ccc3c(ccc4ccccc43)c2)cc1 [OSU-03012]
The conditions noted are these: top dose 16 µM; top dose inferred. As to the method:
as §1

With SU8686 (pancreas, adherent), the AUC with 5-Fluorouracil is 0.874; with QS11, 0.952; with AC220, 0.981; in the assay with CUDC-101 it was 0.685; in the assay with JNK-9L, 0.581; in the assay with RDEA119 (screen: GDSC drug entry 1526) it was 0.921. For the same cell line, in the assay with OSU-03012, the AUC came out at 0.796. Also, the IC50 is above 32000 nM with 5-Fluorouracil; above 10200 nM in the assay with QS11; above 1020 nM in the assay with AC220; 1130 nM in the assay with CUDC-101; 550 nM with JNK-9L; above 5000 nM with RDEA119 (screen: GDSC drug entry 1526). Further, in the assay with OSU-03012, the IC50 was determined as 8520 nM.
SU-DHL-4 (B-cell lymphoma, suspension): the AUC with 5-Fluorouracil worked out at 0.943; with QS11, 0.979; with AC220, 0.997; with CUDC-101 it was 0.191; with JNK-9L it was 0.573; with RDEA119 (screen: GDSC drug entry 1014) it was 0.997. Besides, the AUC stood at 0.997 with RDEA119 (screen: GDSC drug entry 1526) and 0.747 with OSU-03012. Moreover, the IC50 with 5-Fluorouracil is 29000 nM; in the assay with QS11 it was above 10200 nM; in the assay with AC220 it was above 1020 nM; in the assay with CUDC-101 it was 56.1 nM; with JNK-9L, 481 nM; with RDEA119 (screen: GDSC drug entry 1014), above 5000 nM. For the same cell line, the IC50 in the assay with RDEA119 (screen: GDSC drug entry 1526) is above 5000 nM; in the assay with OSU-03012 it was 3970 nM.
For SU-DHL-5 (B-cell lymphoma, suspension), the AUC was 0.698 with 5-Fluorouracil; 0.732 with QS11; 0.961 with AC220; 0.158 in the assay with CUDC-101; 0.451 in the assay with JNK-9L; 0.889 with RDEA119 (screen: GDSC drug entry 1014). For the same cell line, the AUC with RDEA119 (screen: GDSC drug entry 1526) was found to be 0.915; with OSU-03012, 0.485. In addition, the IC50 with 5-Fluorouracil was 6130 nM; with QS11 it was 2380 nM; with AC220, above 1020 nM; in the assay with CUDC-101, 43.4 nM; with JNK-9L, 243 nM; with RDEA119 (screen: GDSC drug entry 1014) it was 3250 nM. Further, the IC50 amounted to 4090 nM in the assay with RDEA119 (screen: GDSC drug entry 1526) and 922 nM with OSU-03012.
With SU-DHL-6 (B-cell lymphoma, suspension), the AUC with 5-Fluorouracil is 0.737; in the assay with QS11, 0.864; with AC220, 0.968; with CUDC-101, 0.175; in the assay with JNK-9L it was 0.512; with RDEA119 (screen: GDSC drug entry 1014), 0.976. In addition, the AUC came out at 0.994 in the assay with RDEA119 (screen: GDSC drug entry 1526) and 0.642 with OSU-03012. Also, the IC50 in the assay with 5-Fluorouracil was 7610 nM; with QS11 it was 5390 nM; in the assay with AC220, above 1020 nM; in the assay with CUDC-101, 49.1 nM; with JNK-9L, 342 nM; in the assay with RDEA119 (screen: GDSC drug entry 1014) it was above 5000 nM. In addition, the IC50 is above 5000 nM with RDEA119 (screen: GDSC drug entry 1526) and 2220 nM with OSU-03012.
Turning to SU-DHL-8 (B-cell lymphoma, suspension), the AUC came out at 0.8 with 5-Fluorouracil; 0.57 with QS11; 0.971 with AC220; 0.124 with CUDC-101; 0.457 with JNK-9L; 0.986 in the assay with RDEA119 (screen: GDSC drug entry 1014). For the same cell line, the AUC with RDEA119 (screen: GDSC drug entry 1526) came out at 0.969; in the assay with OSU-03012, 0.557. In addition, the IC50 with 5-Fluorouracil is 14300 nM; in the assay with QS11 it was 982 nM; with AC220, above 1020 nM; in the assay with CUDC-101 it was 22.8 nM; with JNK-9L, 246 nM; in the assay with RDEA119 (screen: GDSC drug entry 1014), above 5000 nM. Also, the IC50 in the assay with RDEA119 (screen: GDSC drug entry 1526) was above 5000 nM; with OSU-03012, 1420 nM.
As for SU-DHL-16 (B-cell lymphoma, suspension), the AUC turned out to be 0.727 with 5-Fluorouracil; 0.91 with QS11; 0.996 with AC220; 0.01 with CUDC-101; 0.557 with JNK-9L; 0.996 with RDEA119 (screen: GDSC drug entry 1014). Moreover, the AUC stood at 0.996 with RDEA119 (screen: GDSC drug entry 1526) and 0.701 in the assay with OSU-03012. Moreover, the IC50 with 5-Fluorouracil is 7120 nM; with QS11 it was 7280 nM; with AC220, above 1020 nM; with CUDC-101, below 20 nM; with JNK-9L, 438 nM; in the assay with RDEA119 (screen: GDSC drug entry 1014), above 5000 nM. Also, the IC50 with RDEA119 (screen: GDSC drug entry 1526) was above 5000 nM; with OSU-03012, 3080 nM.
As for SUIT-2 (pancreas, adherent), the AUC in the assay with 5-Fluorouracil came out at 0.633; in the assay with QS11, 0.876; with AC220, 0.986; with CUDC-101 it was 0.627; with JNK-9L, 0.637; with RDEA119 (screen: GDSC drug entry 1014), 0.449. Moreover, the AUC in the assay with RDEA119 (screen: GDSC drug entry 1526) worked out at 0.606; with OSU-03012, 0.659. For the same cell line, the IC50 is 4750 nM with 5-Fluorouracil; above 10200 nM with QS11; above 1020 nM with AC220; 732 nM in the assay with CUDC-101; 780 nM in the assay with JNK-9L; 225 nM with RDEA119 (screen: GDSC drug entry 1014). Moreover, the IC50 in the assay with RDEA119 (screen: GDSC drug entry 1526) came to 619 nM; with OSU-03012, 2840 nM.
SUP-HD1 (Hodgkin lymphoma, suspension): the AUC was 0.556 with 5-Fluorouracil; 0.954 with QS11; 0.945 with AC220; 0.42 in the assay with CUDC-101; 0.549 with JNK-9L; 0.966 with RDEA119 (screen: GDSC drug entry 1014). The results for the AUC with RDEA119 (screen: GDSC drug entry 1526) and with OSU-03012 were 0.985 and 0.829, respectively. For the same cell line, the IC50 in the assay with 5-Fluorouracil was 2820 nM; in the assay with QS11, above 10200 nM; with AC220, above 1020 nM; with CUDC-101, 196 nM; in the assay with JNK-9L it was 433 nM; in the assay with RDEA119 (screen: GDSC drug entry 1014), above 5000 nM. The IC50 with RDEA119 (screen: GDSC drug entry 1526) was above 5000 nM; with OSU-03012, 9310 nM.
